Structures can show the parent of a compound that is named as a salt. This is one part of the list. The data scatter; read single values as rough.
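Further: High-content imaging of ALDEFLUOR-stained cells with Hoechst-labelled nuclei in 384-well plates, triplicate wells, scored as Z-score against 0.1% DMSO vehicle, negative meaning fewer ALDHbr cells.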

The test concerns PANC1. Description: ALDHbr (CSC) cell proportion score relative to DMSO vehicle (ratio to DMSO); breast (SUM159) / gastric (MKN45) / pancreatic (PANC1) / colon cancer lines; ALDHbr cells have high ALDH activity and are rich in cancer stem cells (CSC); higher = more CSC (ALDHbr) cells remaining. The conditions noted are these: 10 µM; 72 h.
Consider `COc1cc(NC(C)CCCN)c2ncccc2c1` (centres undefined) [Primaquine diphosphate], for which the ALDHbr was 1.21.
As to `Cn1cnc2c1c(=O)[nH]c(=O)n2C` [Theobromine], the ALDHbr amounted to 0.843.
Take `CC(=O)OCC(=O)[C@@]1(O)CC[C@H]2[C@@H]3CCC4=CC(=O)C=C[C@]4(C)[C@@]3(F)[C@@H](O)C[C@@]21C` [Isoflupredone acetate]: the ALDHbr is 0.565.
Consider `CC(=O)CCCCn1c(=O)c2c(ncn2C)n(C)c1=O` [Pentoxifylline], for which the ALDHbr turned out to be 0.853.
`O=C1c2cccc3c2[C@H](CCC3)CN1[C@@H]1CN2CCC1CC2` [Palonosetron hydrochloride]: the ALDHbr stood at 1.02.
Regarding `CC(C)(C)NCC(O)COc1cccc2c1CCC(=O)N2` (centres undefined) [Carteolol hydrochloride], the ALDHbr worked out at 0.839.
Consider `CCCc1nc2c(C)cc(-c3nc4ccccc4n3C)cc2n1Cc1ccc(-c2ccccc2C(=O)O)cc1` [Telmisartan], for which the ALDHbr turned out to be 0.874.
With `N[C@@H](Cc1ccc(O)c(O)c1)C(=O)O` [Levodopa], the ALDHbr is 0.8.
On to `CC(=O)N(CC(C)C(=O)O)c1c(I)cc(I)c(N)c1I` (centres undefined) [Iocetamic acid], for which the ALDHbr was 0.883.
With `CCOc1cc(CC(=O)N[C@@H](CC(C)C)c2ccccc2N2CCCCC2)ccc1C(=O)O` [Repaglinide], the ALDHbr was determined as 0.879.
Turning to `CCCc1ncc(C[n+]2ccccc2C)c(N)n1` [Amprolium hydrochloride], the ALDHbr worked out at 1.06.
In the case of `CN1CCC(OC(c2ccccc2)c2ccccc2)CC1` [Diphenylpyraline hydrochloride], the ALDHbr is 0.944.
Regarding `Cn1c(=O)c2c(ncn2CCO)n(C)c1=O` [Etofylline], the ALDHbr was found to be 0.869.
Regarding `C#C[C@]1(O)CC[C@H]2[C@@H]3CCc4cc(OC)ccc4[C@H]3CC[C@@]21C` [Ethynylestradiol 3-methyl ether], the ALDHbr came to 0.902.

(Values after the supplement of paper PMC11880418.)
